We go through 1 molecule from paper PMC3323469 (2012).

Broadly, the Ki is a dissociation constant, usually derived from enzyme kinetics or from competition with a known ligand. A high value points to weaker binding.

This test deals with T1, Bombesin (Bombina bombina, UniProt P84214).
T1 chain: QQRLGNQWAVGHLM
Kind of test: competition binding with [125I-Tyr4]bombesin on PC3 cells.

B1: Gastrin-releasing peptide receptor (protein)
chain: MALNDCFLLNLEVDHFMHCNISSHSADLPVNDDWSHPGILYVIPAVYGVIILIGLIGNITLIKIFCTVKSMRNVPNLFISSLALGDLLLLITCAPVDASRYLADRWLFGRIGCKLIPFIQLTSVGVSVFTLTALSADRYKAIVRPMDIQASHALMKICLKAAFIWIISMLLAIPEAVFSDLHPFHEESTNQTFISCAPYPHSNELHPKIHSMASFLVFYVIPLSIISVYYYFIAKNLIQSAYNLPVEGNIHVKKQIESRKRLAKTVLVFVGLFAFCWLPNHVIYLYRSYHYSEVDTSMLHFVTSICARLLAFTNSCVNPFALYLLSKSFRKQFNTQLLCCQPGLIIRSHSTGRSTTCMTSLKSTNPSVATFSLINGNICHERYV
For the molecule B1, the affinity, expressed as Ki, was 0.59 nM.
